Patent US7592316B2, “Peptides as NS3-serine protease inhibitors of hepatitis C virus” (Schering Corporation, priority 2000, dated 2009)
*1 amine or outer side, *2 acyl side, *3 side chain or, on linkers, in order; H or OH if unused. Where a SMILES comes first, the peptide text is derived from it. [ ]: non-standard residue; d: D form. The star is where a group is joined. ξ: configuration not given here. Pro(3R,4S-CMe2) = CC1(C)[C@@H]2[C@@H](C(=O)O)NC[C@@H]21; ξPro(4R-SBzl) = O=C(O)C1C[C@@H](SCc2ccccc2)CN1; ξPhg(3,5-(OMe)2) = COc1cc(OC)cc(C(N)C(=O)O)c1; ξLeu(ψCOCO) = CC(C)CC(N[*:1])C(=O)C(=O)[*:2]; X82 = O=C(c1ccccc1)[C@@H]1CCCC[C@@H]1C(=O)*; ξPhg(2,3-(OMe)2) = COc1cccc(C(N)C(=O)O)c1OC; Acetyl(2-naphthyl) = O=C(Cc1ccc2ccccc2c1)*; Phenylacetyl(4-Cl) = O=C(Cc1ccc(Cl)cc1)*; Isobutyloxycarbonyl = CC(C)COC(=O)*; X8 = O=C(C(=O)[*:2])C(CC1CC1)N[*:1]; Cyclohexylacetyl = O=C(CC1CCCCC1)*; Pentanoyl(2-Pr) = CCCC(CCC)C(=O)*; Hyp = O=C(O)[C@@H]1C[C@@H](O)CN1; X2 = CCCC(N[*:1])C(=O)C(=O)[*:2]; CH2CO2tBu = CC(C)(C)OC(=O)C*; Chg = N[C@H](C(=O)O)C1CCCCC1; Phg = N[C@H](C(=O)O)c1ccccc1; Tle = CC(C)(C)[C@H](N)C(=O)O; X59 = NC(=O)c1ccccc1C(=O)*; ξChg = NC(C(=O)O)C1CCCCC1; ξPhg = NC(C(=O)O)c1ccccc1; Boc = CC(C)(C)OC(=O)*; ξNle = CCCCC(N)C(=O)O; ξP = O=C(O)C1CCCN1; Bn = c1ccc(C*)cc1; OtBu = CC(C)(C)O*; Ms = CS(=O)(=O)*; tBu = CC(C)(C)*

The molecules below were run against HCV NS3/NS4A protease (strain 1a) (Hepatitis C virus genotype 1a, UniProt P27958) (assay: biochemical). Conditions: Compounds prepared by Solid Phase Synthesis, Table 3; read-out: Ki* CLASS.

Row | SMILES | Ki [µM]
1 | C[C@H](NC(=O)C(=O)C(CC1CC1)NC(=O)C1CCCN1C(=O)[C@@H](NC(=O)OC(C)(C)C)C1CCCCC1)C(=O)N[C@H](C(N)=O)c1ccccc1 (some centres unmarked) (Boc-[Chg][ξP][X8]A[Phg]-NH2) | > 1
2 | CCCC(NC(=O)[C@@H]1C[C@@H](OC(C)(C)C)CN1C(=O)[C@@H](NC(=O)Cc1ccccc1)C1CCCCC1)C(=O)C(=O)NCC(=O)NC(C(N)=O)c1cc(C)cc(C)c1 (some centres unmarked) | 0.101 to 1
3 | CCCC(NC(=O)[C@@H]1C[C@@H](OC(C)(C)C)CN1C(=O)[C@@H](NC(=O)OCC(C)C)C1CCCCC1)C(=O)C(=O)NCC(=O)NC(C(N)=O)c1cccc(OC)c1OC (some centres unmarked) (Isobutyloxycarbonyl-[Chg][Hyp](tBu)[X2]G[ξPhg(2,3-(OMe)2)]-NH2) | 0.101 to 1
4 | CCCCC(NC(=O)CNC(=O)C(=O)C(CCC)NC(=O)[C@@H]1C[C@@H](OC(C)(C)C)CN1C(=O)C(NC(=O)Cc1ccc2ccccc2c1)C1CCCCC1)C(N)=O (some centres unmarked) ({Acetyl(2-naphthyl)}-[ξChg][Hyp](tBu)[X2]G[ξNle]-NH2) | > 1
5 | CCCCC(NC(=O)CNC(=O)C(=O)C(CCC)NC(=O)[C@@H]1C[C@@H](OC(C)(C)C)CN1C(=O)C(NC(=O)C(CCC)CCC)C1CCCCC1)C(N)=O (some centres unmarked) ({Pentanoyl(2-Pr)}-[ξChg][Hyp](tBu)[X2]G[ξNle]-NH2) | 0.101 to 1
6 | CCCC(NC(=O)[C@@H]1C[C@@H](OC(C)(C)C)CN1C(=O)[C@@H](NC(=O)c1ccccc1C(N)=O)C1CCCCC1)C(=O)C(=O)NCC(=O)N[C@H](C(N)=O)c1ccccc1 (some centres unmarked) (X59-[Chg][Hyp](tBu)[X2]G[Phg]-NH2) | 0.101 to 1
7 | CCCCC(NC(=O)CNC(=O)C(=O)C(CCC)NC(=O)[C@@H]1C[C@@H](OC(C)(C)C)CN1C(=O)C(NC(=O)CC1CCCCC1)C1CCCCC1)C(N)=O (some centres unmarked) (Cyclohexylacetyl-[ξChg][Hyp](tBu)[X2]G[ξNle]-NH2) | 0.101 to 1
8 | CCCCC(NC(=O)CNC(=O)C(=O)C(CCC)NC(=O)[C@@H]1C[C@@H](OCC(=O)OC(C)(C)C)CN1C(=O)C(NC(=O)Cc1ccc(Cl)cc1)C1CCCCC1)C(N)=O (some centres unmarked) ({Phenylacetyl(4-Cl)}-[ξChg][Hyp](CH2CO2tBu)[X2]G[ξNle]-NH2) | > 1
9 | CCCCC(NC(=O)C(CCCC)NC(=O)CNC(=O)C(=O)C(CCC)NC(=O)[C@@H]1C[C@@H](OCc2ccccc2)CN1C(=O)C(NC(=O)[C@H]1CCCC[C@H]1C(=O)c1ccccc1)C1CCCCC1)C(N)=O (some centres unmarked) (X82-[ξChg][Hyp](Bn)[X2]G[ξNle][ξNle]-NH2) | > 1
10 | CCCC(NC(=O)[C@@H]1C[C@@H](OC(C)(C)C)CN1C(=O)[C@@H](NC(=O)[C@@H](NS(C)(=O)=O)C(C)C)C1CCCCC1)C(=O)C(=O)NCC(=O)NC(C(N)=O)c1cc(OC)cc(OC)c1 (some centres unmarked) (Ms-V[Chg][Hyp](tBu)[X2]G[ξPhg(3,5-(OMe)2)]-NH2) | 0.101 to 1

Same assay, conditions: HCV protease continuous assay results, Table 1; read-out: Ki* Range

Row | Ki [µM] | SMILES
11 | 0.001 to 0.1 | CCCC(NC(=O)[C@@H]1[C@@H]2C(CN1C(=O)[C@@H](NC(=O)OCC(C)C)C(C)(C)C)[C@@H]1CC[C@@H]2C1)C(=O)C(=O)NCC(=O)NC(C(=O)N(C)C)c1ccccc1 (some centres unmarked) [Example 269]
12 | 0.001 to 0.1 | CCCCC(NC(=O)C1[C@@H]2[C@H](CN1C(=O)[C@@H](NC(=O)OCC(C)(C)C)C(C)(C)C)C2(C)C)C(=O)C(=O)NCC(=O)N[C@H](C(=O)N(C)C)c1ccccc1 (some centres unmarked) [Example 332]
13 | > 1 | CCCCC(NC(=O)[C@@H]1C[C@@H](OC(C)(C)C)CN1C(=O)[C@@H](NC(=O)OCC(C)C)C(C)(C)C)C(=O)C(=O)NCC(=O)N[C@H](CNC(=O)c1ccco1)c1ccccc1 (some centres unmarked) [Example 273]

Row | SMILES | Ki [µM]
14 | CCCC(NC(=O)C1C[C@@H](SCc2ccccc2)CN1C(=O)C(NC(=O)OCC(C)C)C1CCCCC1)C(=O)C(=O)NCC(=O)NC(C(=O)OC(C)(C)C)c1ccccc1 (stereo partly drawn) [Example 158] (Isobutyloxycarbonyl-[ξChg][ξPro(4R-SBzl)][X2]G[ξPhg]-OtBu) | > 1
15 | CC(C)CC(NC(=O)[C@@H]1[C@@H]2[C@H](CN1C(=O)[C@@H](NC(=O)OC(C)(C)C)C(C)(C)C)C2(C)C)C(=O)C(=O)NCC(=O)N[C@H](C(=O)N(C)C)c1ccccc1 (stereo partly drawn) [Example 326] (Boc-[Tle][Pro(3R,4S-CMe2)][ξLeu(ψCOCO)]G[Phg]-NMe2) | 0.001 to 0.1

Same assay, conditions: Table 4; HCV NS3/NS4A protease, spectrophotometric assay, 30° C., pH 6.5; read-out: Ki* Range

Row | SMILES | Ki [µM]
16 | CCC[C@H](NC(=O)[C@@H]1[C@H]2C[C@H]2CN1C(=O)[C@@H](NC(=O)OCC(C)C)C1CCCCC1)C(=O)C(=O)NCC(=O)NC(C(=O)N(C)C)c1ccccc1 (stereo in doubt) | 0.001 to 0.1

Same assay, conditions: Table 5; HCV NS3/NS4A protease, 30° C., pH 6.5; read-out: Ki* Range

Row | Ki [µM] | SMILES
17 | 0.101 to 1 | C=CCNC(=O)C(=O)C(CCC)NC(=O)[C@@H]1C2C(CN1C(=O)[C@@H](NC(=O)NC(C)CC)C1Cc3ccccc3C1)C2(C)C (some centres unmarked)
18 | > 1 | C=CCNC(=O)C(=O)C(CCC)NC(=O)[C@@H]1CC(OC(C)(C)C)CN1C(=O)OCC1c2ccccc2-c2ccccc21 (some centres unmarked)
19 | 0.101 to 1 | C=CCCC(NC(=O)[C@@H]1[C@@H]2[C@H](CN1C(=O)[C@@H](NC(=O)NC13CC4CC(CC(C4)C1)C3)C1CCCCC1)C2(C)C)C(=O)C(=O)NCCC(=O)OC(CC)(CC)CC (some centres unmarked)
20 | 0.101 to 1 | CC(C)(C)OC(=O)CCNC(=O)C(=O)C(CCC1CO1)NC(=O)[C@@H]1[C@@H]2[C@H](CN1C(=O)[C@@H](NC(=O)NC13CC4CC(CC(C4)C1)C3)C1CCCCC1)C2(C)C (some centres unmarked)
21 | 0.101 to 1 | C=CCCNC(=O)C(=O)C(CCC=C)NC(=O)[C@@H]1[C@H]2[C@@H](CN1C(=O)C(NC(=O)NC1CCCCC1)C(C)(C)C)C2(Cl)Cl (some centres unmarked)
22 | 0.001 to 0.1 | C=CCCC(NC(=O)[C@@H]1[C@@H]2[C@H](CN1C(=O)[C@@H](NC(=O)OC(C)(C)C)C1CCCCC1)C2(C)C)C(=O)C(=O)NCCS(=O)(=O)C(C)(C)C (some centres unmarked)
23 | > 1 | C=CCCC(NC(=O)[C@@H]1[C@@H]2[C@H](CN1C(=O)[C@@H](NC(=O)NC13CC4CC(CC(C4)C1)C3)C1CCCCC1)C2(C)C)C(=O)C(=O)NCC(=O)N(Cc1ccccc1)Cc1ccccc1 (some centres unmarked)
